Out of some 44,000 compounds screened, about 340 (0.77%) were called active. Roughly 5% stayed inconclusive and do not appear here. The call rests on the fitted dose curve; in most records, active means well fitted inhibition curve with a large enough effect; inconclusive means small, poorly fitted or top-dose-only effect; inactive means flat fitted curve, though single readings scatter. This is one part of the list.
Test: Acumen qHTS Assay for Inhibitors of the mTORC1 Signaling Pathway in MEF (Tsc2-/-, p53-/-) Cells: Sytravon;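 further: plate controls were DMSO for no effect and rapamycin for full effect; nearly all actives have a fitted effect of over 50% in size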
Settings: phospho-rpS6 immunofluorescence/PI, 24 h; series mostly up to 38.3 µM; activity change, negative = inhibition: at the top concentration
Procedure, shortened: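 Plate MEFs (Tsc2-/-, p53-/-, empty vector) in DMEM/10% FBS; after 24 h add compound, incubate 24 h at 37 degree Celsius; fix in PFA/TX-100, block, stain phospho-rpS6 and 10 uM PI; scan at 488 nm; report % positive cells.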

Activity change, negative = inhibition, inactive:
Cc1cccc(-c2nc3c(C#N)c[nH]n3c2NC2CCCCC2)c1 -8.98%, COc1cc(C(=O)NCC(c2cccnc2)N2CCN(c3ccc(F)cc3)CC2)cc(OC)c1OC (stereo unspecified) 2.77%, Cc1nn(-c2ccc3nncn3n2)c(C)c1CCC(=O)Nc1ccc(OC(F)(F)F)cc1 -0.758%, COc1cc(NC(=O)c2noc3c2CCc2ccccc2-3)cc(OC)c1OC -24.2%, Cc1ccccc1CNC(=O)c1ccc(-n2c(C)cc3c2CCCC3)cc1 -16.7%, COc1ccccc1CNC(=O)C1CCN(Cc2nc(-c3ccc(OC)c(OC)c3)oc2C)CC1 -14.7%, Cc1ccc(OCCn2c(-c3ccc(Cl)cc3)nc3ccccc3c2=O)c(C)c1 3.83%, CCCN(CCC)C(=O)Cn1c(=O)n(Cc2ccc(C(=O)NCCc3ccc(OC)c(OC)c3)cc2)c(=O)c2ccccc21 -11.3%, CCCN(C(=O)c1cc2c(Cl)nc3ccccc3c2s1)c1cccc(C)c1 -0.897%, COCCNC(=O)c1ccc(Cn2c(SCC(=O)NC(C)C)nc3ccccc3c2=O)cc1 -13.4%, CCOc1cc(CNc2ccc(O)cc2)cc(Br)c1OCc1ccccc1 -7.82%, CCOc1ccccc1N(C)C(=O)c1nn(-c2ccc(C)cc2)c(=O)c2c1c1ccccc1n2C -4.79%, COc1ccc(CNC(=O)c2ccc3c(c2)N(Cc2ccccc2)C(=O)c2ccccc2S3(=O)=O)cc1 -0.949%, COc1ccc(-c2cc3nc(C4CCN(C(=O)OC(C)(C)C)CC4)c(C(=O)Nc4cc(Cl)cc(Cl)c4)cn3n2)cc1 5.27%, COc1ccc(-n2c(SCC(=O)N3CCC(C)CC3)nc3c([nH]c4ccccc43)c2=O)cc1 -2.66%, CC1=C(C(=O)Nc2ccc(C)cc2C)C(c2sccc2C)n2ncnc2N1 (stereo unspecified) -1.45%, COc1ccc(OC)c(NC(=O)c2csnn2)c1 -2.06%, COCCCNC(=O)c1cc(-c2cccnc2)nc2ccccc12 0%, CCOc1ccccc1-c1nnc(SCc2ccc(Cl)cc2)o1 -4.84%, CCOc1cccc(C2c3c(oc4ccccc4c3=O)C(=O)N2c2nc(C)c(C(=O)OC)s2)c1 (stereo unspecified) 5.4%, O=C(Nc1nnc(S(=O)(=O)N2CCCc3ccccc32)s1)c1ccccc1Br -0.543%, Cc1ccc2occ(CC(=O)Nc3nnc(C(C)C)s3)c2c1 -2.16%, Cc1ccc(-n2ncc(C(=O)Nc3ccc(C)c(F)c3)c2C2CCN(C(=O)OC(C)(C)C)CC2)cc1C 2.52%, CCOc1cc(C2c3c(oc4ccccc4c3=O)C(=O)N2Cc2ccc3c(c2)OCO3)ccc1O (stereo unspecified) -5.28%, Cc1nc2sc(C(=O)NCc3ccc(Cl)cc3)c(NC(=O)c3ccccc3)c2c(C)c1C -7.67%, Cc1ccc(CNC(=O)CCCCn2c(=O)c3ccccc3n(Cc3ccc(Cl)cc3)c2=O)cc1 -2.26%, CCC(C(=O)OCc1cc(=O)n2nc(CCOC)sc2n1)c1ccccc1 (stereo unspecified) -9.48%, Cc1ccccc1NC(=O)c1nc(-c2ccncc2)no1 4.86%, COc1cccc(N2CCN(c3nc4ccc(C(=O)c5ccccc5)cc4n4c(C)nnc34)CC2)c1 -6.56%, Cc1ccc(NC(=O)Cn2c(CCC(=O)O)ccc2-c2cccs2)cc1 -0.655%, COC(=O)C(C)Sc1nc2c([nH]c3ccccc32)c(=O)n1-c1ccc(OC)cc1 (stereo unspecified) 0.169%, Cc1ccc(NC(=O)NCc2cccn2Cc2ccccc2)cc1F -22.9%, Cc1cc(C)c2c(=O)cc(C(=O)Nc3ccc(S(=O)(=O)Nc4nc(C)cc(C)n4)cc3)oc2c1 2.33%, O=C(Nc1ccc2nc(SCC(=O)N3CCCC3)sc2c1)c1ccc(F)cc1 -6.38%, COc1ccc(CNC(=O)CCCn2c(SCC(N)=O)nc3cc4c(cc3c2=O)OCO4)cc1 -0.25%, Cc1cc(Nc2cccc(Cl)c2C)n2nc(Cc3ccccc3)nc2n1 -20.1%, CCOc1ccccc1NC(=O)Cn1c(=O)n(Cc2ccccc2)c(=O)c2c(C)c(C(=O)N(C)C)sc21 -0.321%, CCN(CC)C(=O)CSc1nc2cc3c(cc2c(=O)n1Cc1ccc(C(=O)NCCc2ccc(OC)c(OC)c2)cc1)OCO3 3.28%, COc1cc(Cl)c(C)cc1NC(=O)c1cn(CC(C)C)c(=O)c2cc(OC)c(OC)cc12 -4.9%, CC(C)OCCCNC(=O)CCCn1c(SCC(=O)c2ccc(Br)cc2)nc2c(sc3ccccc32)c1=O 1.46%, CC(NC(=O)c1ccccc1)c1nc2ccccc2n1Cc1ccc(Cl)cc1 (stereo unspecified) -7.88%, COc1ccc(CNC(=O)c2cnn3c(C)c(Cc4ccc(F)cc4)c(C)nc23)cc1 5.67%, Cc1cc(C)c(NC(=O)Cn2c(=O)n(CCCCC(=O)NCc3ccccc3Cl)c(=O)c3ccccc32)c(C)c1 1.66%, COc1cc(CN(CC2CCCO2)C(=O)c2ccccc2F)cc(OC)c1OC (stereo unspecified) -1.46%, Cc1ccc(Cl)cc1NC(=O)Cn1nc2c(cc1=O)CC(C)CC2 (stereo unspecified) 0.141%, CCOc1ccc(NC(=O)CN2C(=O)COc3ccc(S(=O)(=O)Nc4ccccc4)cc32)cc1 0%, Cc1ccc(OCCSc2nc3ccccc3n2CC(=O)N2CCOCC2)c(C)c1 1.93%, COc1ccc(C(=O)Nc2ccc3nc4n(c(=O)c3c2)CCCCC4)cc1OC 2.36%, CCC(=O)N1CCc2cc(Br)cc(S(=O)(=O)N3CCC(C(=O)NC(C)(C)C)CC3)c21 -0.636%, O=C(NNc1ncnc2c1cnn2-c1ccccc1)c1cccc(Cl)c1 -8.88%, CC(C)Cn1c(=O)c2ccccc2n2c(-c3cccc(Cl)c3)nnc12 -3.86%, COc1ccc(C(=O)NCc2nnnn2-c2ccc(C)c(C)c2)cc1 6.04%, COc1ccc(Cl)c(Cn2c(NCCN)nc3c2c(=O)n(C)c(=O)n3C)c1 0.485%, CCOc1ccc(NC(=O)N2CCOc3ccccc32)cc1 -4.35%, N#Cc1ccc(-c2cccs2)nc1SCc1ccc(Cl)cc1Cl -2.27%, CCc1ccccc1NC(=O)CSc1nnc(-c2nonc2NC(C)=O)n1C -9.28%, Cc1ccc(Cl)cc1Nc1nc2ccccc2n2c(C)nnc12 0.236%, CCCOc1ccccc1Cn1c(=O)sc2ccccc21 -18.5%, CCCCc1nn2c(=O)cc(COC(=O)c3ccccc3NC(=O)C(C)(C)C)nc2s1 10.3%, Cc1cc(NS(=O)(=O)c2ccc(NC(=O)COc3ccc(Br)cc3C)cc2)no1 -3.77%, Cc1[nH]c(=O)[nH]c(=O)c1C1N2CC3(C(C)C)CN1CC(C(C)C)(C2)C3=O (stereo unspecified) -0.983%

Source: PubChem BioAssay AID493208 (National Center for Advancing Translational Sciences (NCATS), 2011)
